From the RNAGym collection of RNA variant scans (doi:10.1093/nar/gkz1192)
Read counts are not given, so values of variants with three or more changes are uncertain.

B1: CPEB3 Ribozyme (parent)
chain: UAACAGGGGGCCACAGCAGAAGCGUUCACGUCGCAGCCCCUGUCAGAUUCUGGUGAAUCUGCGAAUUCUGCUGUAUAUCUC

Variants of: B1
Test: self-cleavage, relative activity (ratio to wild type); higher = more cleavage; in vitro, sequencing
Method in brief: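 For each CPEB3 ribozyme variant, relative activity is its cleaved/total read fraction divided by the unmutated ribozyme's. Barcoded error-prone PCR libraries were transcribed by T7 RNA polymerase (5 hours, 37°C) and held in DNase I for 15 min before an EDTA stop, with cleavage occurring throughout. Template-switching reverse transcription and Illumina sequencing were used to read the RNAs. A 5-read minimum applied, and results are the mean of three batches.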

Question: Which self-cleavage does the source give for UAACAGGGGGCCACAGCAGAGGCGUUCUCGUCGCAGCCCCUGUCAGACUCUGGUGAAUCCGCGAAUUCUGCUGUAUAUCUC [A21G A28U U48C U60C] here?
Answer: 0.08

Question: Which self-cleavage does the source give for UAACAGGGGGCCACAGCAGAGGCGUUCUCGUCGCAGCCCCUGUCAGAUUCUGGCGAAUCUGCGAAUUCUGCAAUAUAUCCC [A21G A28U U54C U72A G73A U80C] here?
Answer: 0.62

Question: For UAACAGGGGGCCACAGCAGAGGCGUUCUCGUCGCAGCCCCUGUCAGAUUCUGGUGAAUCUGCGAAUUCUGCCGUGUGUCUC [A21G A28U U72C A75G A77G], which self-cleavage is on record?
Answer: 0.16

Question: Which self-cleavage does the source give for UAACAGGGGGCCACAGCAGAGGCGUUCUCGUCGCAGCCCCUGUCAGAUUCUGGUGAAUCUGCGAAUUCUGCUGAAUAUCUC [A21G A28U U74A] here?
Answer: 0.84

Question: With UAACAGGGGGCCACAGCAGAGGCGUUCACGUCGCCGCCCCUGUCAGAUUCUGGUGUAUCUGCGAAUUCUGCGGUAUAUCUC [A21G A35C A56U U72G] as the variant, how does the self-cleavage read?
Answer: 0.3

Question: With UAACAGGGGGCCACAGCAGAGGCGUUCACGUCGCCGCCCCUGUCAGAUUCUGGUGAAUCAGCGGAUUCUGCUGUAUAUCUC [A21G A35C U60A A64G] as the variant, how does the self-cleavage read?
Answer: 0.1

Question: Which self-cleavage does the source give for UAACAGGGGGCCACAGCAGAGGCGUUCACGUCGCGGCCCCUGUCGGAUUCUGGUGAAUCUGCGAAUUCUGCUGUAUAUCUC [A21G A35G A45G] here?
Answer: 1.11

Question: Which self-cleavage does the source give for UAACAGGGGGCCACAGCAGAGGCGUUCACGUCGCGGCCCCUGUCAGGUUCUGGUGAAUCUGCGAAUUCUGCUGUAUAUCUC [A21G A35G A47G] here?
Answer: 1.14

Question: With UAACAGGGGGCCACAGCAGAGGCGUUCACGUCGCGGCCCCUGUCAGAUUCUGGUGAAUCUGCGACUCCUGCUGUAUAUCUC [A21G A35G A65C U67C] as the variant, how does the self-cleavage read?
Answer: 0.2

Question: Which self-cleavage does the source give for UAACAGGGGGCCACAGCAGAGGCGUUCACGUCGCGGUCCCCGUCAGAUUCUGGUGAAUCUGCGAAUUCUGCUGUAUAUCUC [A21G A35G C37U U41C] here?
Answer: 1.18

Question: For UAACAGGGGGCCACAGCAGAGGCGUUCACGUCGCGGCCCCUGUCAGAUUCUGGUGAAUCUGCGAAUUCUGAUGUAUAUCUC [A21G A35G C71A], which self-cleavage is on record?
Answer: 0.38

Question: With UAACAGGGGGCCACAGCAGAGGCGUUCACGUCGCGGCCCCCGUCAGAUUCUGGUGAAUCUGCGAAUUCCGCUGUAUAUCUC [A21G A35G U41C U69C] as the variant, how does the self-cleavage read?
Answer: 0.19

Question: Which self-cleavage does the source give for UAACAGGGGGCCACAGCAGAGGCGUUCACGUCGCGGCCCCUGUCAGAUCCUGGUGAAUCUGCGAAUUCUGCUGUAUAUCUC [A21G A35G U49C] here?
Answer: 0.3

Question: Which self-cleavage does the source give for UAACAGGGGGCCACAGCAGAGGCGUUCACGUCGCGGCCCCUGUCAGAUUCCGGUGAAUCUGCGAAUUCUGCUGUAUAUCUC [A21G A35G U51C] here?
Answer: 1.17

Question: For UAACAGGGGGCCACAGCAGAGGCGUUCACGUCGCGGCCCCUGUCAGAUUCCGGUGUAUCUGCGGAUUCUGCUGUAUAUCUC [A21G A35G U51C A56U A64G], which self-cleavage is on record?
Answer: 0.49

Question: With UAACAGGGGGCCACAGCAGAGGCGUUCACGUCGCUGCCCCUGUCAGAUUCUAGUGAAUCUGCGAAUUCUGCUGUAUAUCGC [A21G A35U G52A U80G] as the variant, how does the self-cleavage read?
Answer: 0.26

Question: For UAACAGGGGGCCACAGCAGAGGCGUUCACGUCGCUGCCCCUGCCAGAUUCUGGUGAAUCUGCGAAUUCUGCUGUAUAUCAC [A21G A35U U43C U80A], which self-cleavage is on record?
Answer: 0.21

Question: For UAACAGGGGGCCACAGCAGAGGCGUUCACGUCGCUGCCCCUGUCAGAUACUGGUGAAUCUGCGGAUUCUGUUGUAUAUCUC [A21G A35U U49A A64G C71U], which self-cleavage is on record?
Answer: 0.2

Question: With UAACAGGGGGCCACAGCAGAGGCGUUCACGUCGCAGCCCCUGUCCGGUUCUCGUGAAUCUGCGAAUUCAGCUGUAUAACUC [A21G A45C A47G G52C U69A U78A] as the variant, how does the self-cleavage read?
Answer: 0.16

Question: For UAACAGGGGGCCACAGCAGAGGCGUUCACGUCGCAGCCCCUGUCCGAUACUGGUGAAUCAGCGAAUUCCGCUGUAUGUCUC [A21G A45C U49A U60A U69C A77G], which self-cleavage is on record?
Answer: 0.17

Question: Which self-cleavage does the source give for UAACAGGGGGCCACAGCAGAGGCGUUCACGUCGCAGCCCCUGUCCGAUUCUGGAGAAUCCGCGAAUUCUGCUGCAUAUCUC [A21G A45C U54A U60C U74C] here?
Answer: 0.07

Question: For UAACAGGGGGCCACAGCAGAGGCGUUCACGUCGCAGCCCCUGUCGGAUUCUGGUGGAUCUGCGAAUUCUGCUGAAUAUCUC [A21G A45G A56G U74A], which self-cleavage is on record?
Answer: 0.23

Question: Which self-cleavage does the source give for UAACAGGGGGCCACAGCAGAGGCGUUCACGUCGCAGCCCCUGUCGGAUUCUGGUGAAUCUGCGGAUUCUGCCGUAUACCUC [A21G A45G A64G U72C U78C] here?
Answer: 0.13

Question: For UAACAGGGGGCCACAGCAGAGGCGUUCACGUCGCAGCCCCUGUCGGAUUGUGGUGAAUCUGCGAAUUCUGCUGUAUAUCUC [A21G A45G C50G], which self-cleavage is on record?
Answer: 0.16

Question: Which self-cleavage does the source give for UAACAGGGGGCCACAGCAGAGGCGUUCACGUCGCAGCCCCUGUCGGAUUCUGGUGAAUCUGCGAAUCCUGCCGUAUAUCUC [A21G A45G U67C U72C] here?
Answer: 0.31

Question: Which self-cleavage does the source give for UAACAGGGGGCCACAGCAGAGGCGUUCACGUCGCAGCCCCUGUCUGAUUCUGGUGAAUCUGCGAUUUCUGCUGUAUAUCUC [A21G A45U A65U] here?
Answer: 0.14

Question: Which self-cleavage does the source give for UAACAGGGGGCCACAGCAGAGGCGUUCACGUCGCAGCCCCUGUCUGAUCCUGGUGAAUCUGCGAAUUCUGCUAUAUAUCUC [A21G A45U U49C G73A] here?
Answer: 0.21

Question: Which self-cleavage does the source give for UAACAGGGGGCCACAGCAGAGGCGUUCACGUCGCAGCCCCUGUCUGAUUCUGGCGAAUCUGCGAAUUCUGCUGUAUAUCUC [A21G A45U U54C] here?
Answer: 0.12

Question: With UAACAGGGGGCCACAGCAGAGGCGUUCACGUCGCAGCCCCUGUCUGAUUCUGGUGAAUCUGCGAAUUCUGCUGAUUAUCUC [A21G A45U U74A A75U] as the variant, how does the self-cleavage read?
Answer: 0.51

Question: Which self-cleavage does the source give for UAACAGGGGGCCACAGCAGAGGCGUUCACGUCGCAGCCCCUGUCUGAUUCUGGUGAAUCUGCGAAUUCUGCUGUAUAUCAC [A21G A45U U80A] here?
Answer: 0.36

Question: With UAACAGGGGGCCACAGCAGAGGCGUUCACGUCGCAGCCCCUGUCAGCUCCAGGUGAAUCUGCGAAUUCUGCUGUAUAUCUC [A21G A47C U49C U51A] as the variant, how does the self-cleavage read?
Answer: 0.2

Question: With UAACAGGGGGCCACAGCAGAGGCGUUCACGUCGCAGCCCCUGUCAGGUUCUGGUGAACCUGCGAAUUCUGCUGUAUAUCUC [A21G A47G U58C] as the variant, how does the self-cleavage read?
Answer: 0.93

Question: Which self-cleavage does the source give for UAACAGGGGGCCACAGCAGAGGCGUUCACGUCGCAGCCCCUGUCAGGUUCUGGUGAAUCUGCGAACUCUGCUGUAUAUCUC [A21G A47G U66C] here?
Answer: 1.05

Question: Which self-cleavage does the source give for UAACAGGGGGCCACAGCAGAGGCGUUCACGUCGCAGCCCCUGUCAGGUUCUGGUGAAUCUGCGAAUUCUGCAGUAUAUCUC [A21G A47G U72A] here?
Answer: 0.32
